# In all, about 310,000 compounds went through this assay and about 2,200 (0.71%) showed an effect of 50% or more. The effect is printed as a negative number. The list shows a part of the results.
# Biological target: human ether-à-go-go-related gene (hERG) potassium channel (human, UniProt Q12809)
# Test: primary screen, population patch clamp on CHO cells stably expressing hERG
# Sequence of human ether-à-go-go-related gene (hERG) potassium channel (Q12809 whole entry, looked up): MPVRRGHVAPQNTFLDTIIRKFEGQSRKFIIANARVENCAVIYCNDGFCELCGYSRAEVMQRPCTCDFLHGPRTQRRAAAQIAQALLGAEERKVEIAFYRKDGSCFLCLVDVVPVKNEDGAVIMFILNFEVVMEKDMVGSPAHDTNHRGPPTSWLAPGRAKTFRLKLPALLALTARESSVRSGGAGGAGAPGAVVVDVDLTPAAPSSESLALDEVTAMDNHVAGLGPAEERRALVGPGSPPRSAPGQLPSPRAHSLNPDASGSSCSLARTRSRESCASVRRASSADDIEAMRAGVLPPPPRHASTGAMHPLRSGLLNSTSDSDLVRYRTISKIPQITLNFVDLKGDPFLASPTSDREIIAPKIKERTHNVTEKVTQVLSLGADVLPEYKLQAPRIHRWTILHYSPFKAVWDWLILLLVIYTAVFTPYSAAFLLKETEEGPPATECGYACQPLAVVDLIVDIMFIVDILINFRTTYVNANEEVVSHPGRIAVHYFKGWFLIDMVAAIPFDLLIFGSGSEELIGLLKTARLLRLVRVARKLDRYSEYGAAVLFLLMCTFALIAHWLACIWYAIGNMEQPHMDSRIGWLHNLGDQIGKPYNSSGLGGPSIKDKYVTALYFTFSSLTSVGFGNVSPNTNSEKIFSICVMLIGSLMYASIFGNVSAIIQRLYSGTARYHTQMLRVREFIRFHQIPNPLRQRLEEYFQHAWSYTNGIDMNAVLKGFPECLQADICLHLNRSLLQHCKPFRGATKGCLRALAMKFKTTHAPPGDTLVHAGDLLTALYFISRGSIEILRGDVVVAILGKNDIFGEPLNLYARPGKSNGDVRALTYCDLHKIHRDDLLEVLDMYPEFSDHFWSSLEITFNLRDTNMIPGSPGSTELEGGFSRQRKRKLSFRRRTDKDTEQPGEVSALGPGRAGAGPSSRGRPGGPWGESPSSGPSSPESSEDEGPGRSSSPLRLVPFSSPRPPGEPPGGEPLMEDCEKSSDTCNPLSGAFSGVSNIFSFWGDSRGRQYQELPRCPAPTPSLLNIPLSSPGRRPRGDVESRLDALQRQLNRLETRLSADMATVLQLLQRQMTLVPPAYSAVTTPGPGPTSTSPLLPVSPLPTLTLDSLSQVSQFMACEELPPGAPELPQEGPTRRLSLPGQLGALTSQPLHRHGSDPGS
row,SMILES,"hERG current change (%, negative = inhibition) at 1uM [%]"
1,COc1cc(OC)cc(C(=O)NC(=S)Nc2nc(-c3cc4ccccc4o3)cs2)c1,6.79
2,CCOc1ccc(C2OC34CCCCC3C(C#N)(C#N)C2(C#N)C(=N)O4)cc1OC (centres unmarked),4.84
3,CCC(=O)N(Cc1cc2c(C)ccc(C)c2[nH]c1=O)C1CCCCC1,-8.25
4,Cc1ccc(C)c(NC(=O)CN(C)C(=O)COc2ncnc3sccc23)c1,6.33
5,O=C(NCc1ccc(Cl)cc1)c1cc2ccccn2n1,3.9
6,COC(=O)N/N=C/c1cn(Cc2ccccc2F)c2ccccc12,11.4
7,O=C(Nc1cccnc1)C1CC(c2ccc(Cl)c(Cl)c2)=NO1 (centres unmarked),4.65
8,Cc1cccc(N2C(=O)C3C4CC(C(Br)C4Br)C3C2=O)n1 (centres unmarked),11.6
9,COC(=O)c1ccc(Oc2cc(C)nc(SC)n2)cc1,10.6
10,COc1ccc(NC(=O)Cc2nnc(SCC(=O)Nc3ccccc3)n2C)cc1,19
11,O=C(NCCSc1ccc(Br)cc1)c1ccc2nc[nH]c2c1,7.15
12,COc1ccc(/C(C)=N/N=C(\C)c2ccc(OC)cc2OC)c(OC)c1,-2.27
13,COc1ccc2c(c1)OC[C@H]1[C@H]2N2C(=O)CN(Cc3ccc(C)cc3)C(=O)[C@@]2(C)[C@H]1c1ccccc1,23.5
14,Cc1cc(C)c(NC(=O)COC(=O)C2CCCCC2)c(C)c1,8.1
15,COc1ccc(Cn2nnnc2C(c2cc3cccc(C)c3[nH]c2=O)N2CCN(C)CC2)cc1 (centres unmarked),12.7
16,CC(C)n1nc(C(=O)OCC(=O)N2CC(=O)Nc3ccccc32)c2ccccc2c1=O,3.38
17,CCN1CCN(S(=O)(=O)c2cc(OC)ccc2OC)CC1,19
18,O=C(Nc1ccc2c(c1)OCO2)C(=O)c1c[nH]c2ccccc12,16.4
19,CC(NC(N)=O)C12CC3CC(CC(C3)C1)C2 (centres unmarked),15.2
20,C=Cc1c(C)c2cc3[nH]c(cc4nc(cc5nc(cc1[nH]2)C(C)=C5CCC(=O)O)C(CCC(=O)O)=C4C)c(C)c3C=C,13.8
21,COc1ccc(-n2c(SCC(=O)Nc3ccc(C(N)=O)cc3)nc3c([nH]c4ccccc43)c2=O)cc1OC,12.8
22,CC(=O)NC(=S)Nc1ccc(NC(=S)NC(=O)/C=C/c2ccco2)cc1,11
23,O=C(c1ccccc1)c1c[nH]c(C(=O)NCCCN2CCOCC2)c1,-4.29

row,SMILES,"hERG current change (%, negative = inhibition) at 1uM [%]"
1,Cc1nn(-c2ccc(Cl)cc2)c(NC(=O)C(C)C)c(-c2ccccc2)c1=O,9.38
2,Cn1nc(-c2ccc(Cl)cc2)cc1NC(=O)Nc1ccccc1,15.2
3,O=C(N/N=C/c1ccc(N2CCOCC2)cc1)c1ccccc1NS(=O)(=O)c1cccs1,10.1
4,Cc1[nH]c(C)c2c(=O)[nH]ncc12,13
5,Cc1ccc(C(=O)C(C(=O)/C=C/c2ccccc2)=C2SCCCS2)cc1,8.71
6,O=S(=O)(c1ccccc1)c1nc(-c2ccc(F)cc2)oc1N1CCOCC1,-8.68
7,COc1cccc(/C=N/NC(=O)COc2cccc3cccnc23)c1O,8.24
8,O=C(Nc1ccc(-c2n[nH]c(=S)o2)cc1)c1ccccc1,9.1
9,O=S(=O)(Nc1ccc2c(c1)OCCO2)c1ccc(Br)s1,0.759
10,CCOC(=O)c1cc(-c2ccc(F)cc2)n(CC(=O)NCc2cccnc2)c1C,-10.2
11,Brc1cccc2sc(N3CCN(c4ccccc4)CC3)nc12,14.1
12,Cc1cccnc1Oc1ncccc1N,18.2
13,CCOC(=O)CNC(=O)CN1CCCN(S(=O)(=O)c2ccc(Br)s2)CC1,-10
14,Cc1ccccc1OCC(O)CN1CCN(CC(O)COc2ccccc2C)C(C)C1.O=C(O)C(=O)O (centres unmarked),-29
15,COc1ccc2c(c1)c(=O)oc1cc(OCC(=O)N3CCc4ccccc4C3)ccc12,2.91
16,Cc1c(-n2c(SCC(=O)N(C)C3CCS(=O)(=O)C3)nc3ccccc3c2=O)c(=O)n(-c2ccccc2)n1C (centres unmarked),13.7
17,Cc1c(C(=O)N/N=C/c2cccnc2)sc(N)c1C#N,13.7
18,O=C(NCc1ccco1)Nc1ccc2nsnc2c1,3.27
19,COc1cccc(OC)c1OCCCN1CCOCC1,10.1
20,CC(=O)Nc1ccc2nc(C3CC3)n(Cc3ccc(Cl)cc3)c(=O)c2c1,7.75
21,COc1ccc(NC2CCCN(C(=O)CSc3ccncc3)C2)cc1 (centres unmarked),-0.247
22,COc1ccc(S(=O)(=O)NN(C)c2nc(C(F)(F)F)nc3ccccc23)cc1,7.56
23,COCc1c(C(=O)Nc2ccc3nc(N4CCOCC4)sc3c2)oc2ccccc12,-9.89

row,SMILES,"hERG current change (%, negative = inhibition) at 1uM [%]"
1,CC(C)(O)P(C)(=O)c1ccccc1 (centres unmarked),12.5
2,O=C(O)c1cccc(S(=O)(=O)N2CCSCC2)c1,5.38
3,CCCCOC(=O)n1c(SCC(=O)N(C)C)nc2ccccc21,-11.6
4,Cc1ccc(NC2CC(=O)N(c3cccc([N+](=O)[O-])c3)C2=O)cc1 (centres unmarked),0.207
5,CC(=O)Nc1ccc(C2Nc3cc(C)c(C)cc3NC3=C2C(=O)CC(C)(C)C3)cc1 (centres unmarked),5.89
6,COc1ccc(S(=O)(=O)N2CCCCCC2)cc1NC(=O)CN(C)Cc1ccc2c(c1)OCO2,3.49
7,CCn1c(=S)sc2c(=O)n(CC(=O)Nc3cccc(Cl)c3)c(C)nc21,10.7
8,OCCN1CCN(c2cc(C(F)(F)F)nc3c(F)cccc23)CC1,9.83
9,COc1cccc(C2NC(=O)NC(C)=C2C(=O)Nc2ccc(C)cc2)c1OC (centres unmarked),6.84
10,COc1ccccc1NC(=S)NC1CCCCC1,11.2
11,CC(=O)c1cccc(NS(=O)(=O)N(C)C)c1,15.9
12,N/C(Cc1cccc2ccccc12)=N\OC(=O)c1ccccc1F,10.4
13,CC(C)(C)C(=O)Nc1cccc(-c2nc3ccccc3c(=O)o2)c1,1.39
14,CC(C)CN(C(=O)CSc1nn(-c2ccc(Cl)cc2)c(=S)s1)C1CCS(=O)(=O)C1 (centres unmarked),3.1
15,O=C(CS(=O)(=O)Cc1ccccc1)Nc1ccc2c(c1)OCO2,12.5
16,O=C(NCCc1ccccc1)c1cc(-c2ccccc2)c(N2CCOCC2)s1,10.6
17,CCC(C)C(=O)Nc1cc(C(=O)OC)ccc1C(=O)OC (centres unmarked),-4.39
18,CCOC(=O)c1cnc2c(ccc3ccccc32)c1N,16.7
19,CC(=O)Cn1cnc2sc(-c3ccccc3)cc2c1=O,3.26
20,O=c1cc(-c2ccccc2)cc(-c2ccccc2)n1CCCO,-2.74
21,CCOc1ccc(-n2c(=O)c3c(C)c(C(=O)N(C)C)sc3n(CC(=O)Nc3ccccc3F)c2=O)cc1,7.7
22,O=C1CSC(c2cccc(F)c2)N1c1c(F)cccc1F (centres unmarked),5.86
23,Cc1ccc(CN2CCN(Cc3cccn3-c3ccccn3)CC2CCO)o1 (centres unmarked),-59.5

row,SMILES,"hERG current change (%, negative = inhibition) at 1uM [%]"
1,CC(=O)Nc1ccc(S(=O)(=O)c2ccc(N)cc2)cc1,7.62
2,CCOC(=O)C(CC)Sc1nnc2cc(C)c3ccccc3n12 (centres unmarked),-20.5
3,COc1ccc(C(=O)/C=C/c2ccc(OCc3ccccc3)cc2)cc1CSCC(=O)O,-4.12
4,CCN(CC(=O)NC1CCS(=O)(=O)C1)S(=O)(=O)c1ccc(C)cc1C (centres unmarked),12.2
5,O=C(CCCC(=O)N/N=C\c1ccccn1)N/N=C\c1ccccn1,1.24
6,CCOc1ccc(N=C(NC#N)SCC)cc1,1.85
7,CC1CCN(C(=O)CSc2nnc(CNc3ccc(F)cc3)n2Cc2ccco2)CC1,-13.3
8,CC(=O)NC12CC3CC(C1)CC(C(=O)OCC(=O)c1ccc4c(c1)OCCO4)(C3)C2,9.85
9,COc1ccc(CN(C)S(=O)(=O)c2nnc(NC(=O)c3cccc(F)c3)s2)cc1,13.4
10,CC(C)OC(=O)c1nn2c(C(F)(F)F)cc(-c3ccco3)nc2c1Cl,18.1
11,Cc1ccc(CS(=O)(=O)Cc2ccc(C(=O)NCCCN3CC(C)CC(C)C3)o2)cc1 (centres unmarked),-41.2
12,Cn1c(NNC(=O)C(c2ccccc2)c2ccccc2)cc(=O)n(C)c1=O,8.72
13,CC1CCC(C(C)C)C(OCC[N+](C)(C)C)C1 (centres unmarked),8.65
14,CSc1ncccc1C(=O)OCC(=O)NCc1ccccc1,-4.9
15,COc1cc(C2NC(=O)CCC2[N+](=O)[O-])c(OC)cc1Br (centres unmarked),13.6
16,CC(=O)N1CCN(Cc2nc(-c3cccc(Cl)c3)no2)CC1,25.6
17,O=c1c(-c2ccc(F)cc2)[n+]([O-])c2ccccc2n1OCc1ccccn1,9.71
18,Cc1nc(SCC(=O)NCC2CCCO2)[nH]c(=O)c1C (centres unmarked),11.7
19,CCn1ccc(C(=O)Nc2cccc(Cl)c2)n1,18.3
20,Cc1ccc(-c2oc3ncnc(N)c3c2-c2ccc(C)cc2)cc1,-3.25

# Source: PMC4336329 (PLoS ONE, 2015)
